Consider one molecule from patent US12043658B2, “Conjugate comprising an active MMP-9-binding peptide” (Daiichi Sankyo Company, Limited, priority 2017, dated 2024).

In assay [1] the target is T1, human MMP-9 (active hMMP-9(cat)_His6) (Homo sapiens, UniProt P14780).
T1 construct: an enzyme active domain (Phe107-Pro449) and a His tag; made in house; host or cells: FreeStyle 293F
Kind of assay: Human MMP-9 inhibitory activity of active MMP-9-binding peptide derivatives (substrate peptide). Particulars: 0.6 nM active hMMP-9(cat)_His6. It is filed as biochemical. As to the method:
The substrate peptide MOCAc-KPLGL-A2pr (Dnp)-AR-NH2 (SEQ ID NO: 30 (FIG. 46)) (PEPTIDE […], INC.; 3226-v) was dissolved in water to 1 mM, and diluted with an assay buffer (50 mM Tris-HCl, 200 mM NaCl, 2 mM CaCl2, pH 7.5) to use at a final concentration of 2.5 to 10 μM. Fifty μl each of the active hMMP-9(cat)_His6 diluted with the assay buffer and the active MMP-9-binding peptide were mixed, and reacted at 37° C. for 1 hour. Then, 100 μl of the substrate diluted with the assay buffer was added, and fluorescence signals (excitation 328 nm/emission 393 nm) were measured with Enspire (PerkinElmer, Inc.). The final concentration of active hMMP-9(cat)_His6 was 0.4 nM, and the final concentration of the active MMP-9-binding peptide was 0.5 to 25 nM. For reactions and measurements, a ProteoSave™ SS96F black plate (Sumitomo Bakelite Co., Ltd.) was used.
According to the method described in (4-1), human MMP-9 inhibitory activity of each of the binding peptides was evaluated with 0.6 nM final concentration of active hMMP-9(cat)_His6 and 0.0015 to 100 nM final concentration of each active MMP-9-binding peptide (FIGS. 11(A), 12(A), and 13(A)).

In assay [2] the target is T2, pro human MMP-9 (pro-hMMP-9(cat)_His6) (Homo sapiens, UniProt P14780).
T2 construct: a propeptide (Ala20-Arg106), an enzyme active domain (Phe107-Pro449) and a His tag; made in house; host or cells: FreeStyle 293F
T2 sequence (P14780 20-449): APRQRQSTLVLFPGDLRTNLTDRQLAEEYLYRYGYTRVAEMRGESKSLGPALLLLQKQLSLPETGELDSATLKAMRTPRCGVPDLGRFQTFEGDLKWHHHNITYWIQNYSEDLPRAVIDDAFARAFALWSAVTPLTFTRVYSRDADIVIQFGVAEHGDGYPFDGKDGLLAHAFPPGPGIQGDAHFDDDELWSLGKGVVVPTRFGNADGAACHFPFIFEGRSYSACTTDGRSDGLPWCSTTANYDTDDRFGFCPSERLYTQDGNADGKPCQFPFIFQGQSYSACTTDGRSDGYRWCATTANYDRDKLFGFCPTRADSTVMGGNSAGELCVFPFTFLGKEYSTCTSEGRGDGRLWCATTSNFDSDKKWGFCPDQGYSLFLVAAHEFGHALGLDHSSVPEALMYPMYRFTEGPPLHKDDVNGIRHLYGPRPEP
Kind of assay: Immunoprecipitation with pro human MMP-9 enzyme active domain. The class given is binding. Particulars: Protein G beads, detection in Elu lane. As to the method:
(§1) With M91005-Fc-01 prepared in (7-2) and pro-hMMP-9(cat)_His6 and active hMMP-9(cat)_His6 prepared in (2-1), the binding activity was evaluated by an immunoprecipitation method. 3 μg of the active MMP-9-binding peptide derivative and 1.5 mg of Dynabeads™ Protein G for Immunoprecipitation (Thermo Fisher Scientific) were mixed, and reacted at room temperature for 30 minutes. After washing, 0.39 μg of pro human MMP-9 enzyme active domain or 0.63 μg of active human MMP-9 enzyme active domain was added, and the mixture was reacted at 4° C. for 1 hour. After separating the beads with a magnet, the supernatant fraction (FT) was recovered. […] The added human MMP-9 enzyme active domain (Inp), FT and Elu were subjected to SDS-PAGE, and the binding activity was assessed by detection with Biotinylated Human MMP-9 Antibody (R&D Systems; BAF911) and Streptavidin-HRP Conjugate (GE Healthcare; RPN2280). […]
(§2) When the beads linked to M91005-Fc-01 were used, pro-hMMP-9(cat)_His6 was not detected in the Elu lane, while active hMMP-9(cat)_His6 was detected in the Elu lane. In contrast, when the beads not linked to M91005-Fc-01 were used, pro-hMMP-9(cat)_His6 and active hMMP-9(cat)_His6 were not detected in the Elu lanes (FIG. 14(A)).

In assay [3] the target is T3, active human MMP-9 (active hMMP-9(cat)_His6) (Homo sapiens, UniProt P14780).
T3 construct: an enzyme active domain (Phe107-Pro449) and a His tag; made in house; host or cells: FreeStyle 293F
T3 sequence (P14780 107-449): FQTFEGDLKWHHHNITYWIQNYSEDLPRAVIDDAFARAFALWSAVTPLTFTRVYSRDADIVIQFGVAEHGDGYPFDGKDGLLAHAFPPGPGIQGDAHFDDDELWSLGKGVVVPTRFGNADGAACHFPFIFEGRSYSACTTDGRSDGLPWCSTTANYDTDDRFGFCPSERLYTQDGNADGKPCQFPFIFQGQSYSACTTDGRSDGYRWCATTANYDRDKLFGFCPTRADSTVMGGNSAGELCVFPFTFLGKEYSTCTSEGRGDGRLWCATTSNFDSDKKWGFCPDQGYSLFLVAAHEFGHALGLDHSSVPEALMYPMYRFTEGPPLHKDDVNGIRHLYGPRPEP
Kind of assay: Immunoprecipitation with active human MMP-9 enzyme active domain. The class given is binding. As to conditions: Protein G beads, detection in Elu lane. As to the method:
as §1, §2

Assay [4] has as its target T4, pro mouse MMP-9 (pro-mMMP-9(cat)_His6_FLAG_Avi) (Mus musculus, UniProt P41245).
T4 construct: a propeptide (Ala20-Arg107), an enzyme active domain (Phe108-Pro449), a FLAG tag; made in house; host or cells: FreeStyle 293F
T4 sequence (P41245 108-449): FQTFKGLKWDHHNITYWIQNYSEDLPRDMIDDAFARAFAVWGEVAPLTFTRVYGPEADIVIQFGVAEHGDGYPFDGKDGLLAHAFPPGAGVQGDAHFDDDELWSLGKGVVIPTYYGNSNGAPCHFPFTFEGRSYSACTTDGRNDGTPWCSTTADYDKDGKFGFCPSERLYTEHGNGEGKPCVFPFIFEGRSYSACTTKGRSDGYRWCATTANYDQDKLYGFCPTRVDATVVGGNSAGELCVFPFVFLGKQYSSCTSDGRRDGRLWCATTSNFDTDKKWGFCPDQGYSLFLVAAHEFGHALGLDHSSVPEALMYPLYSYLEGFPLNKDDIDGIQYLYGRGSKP
Kind of assay: Immunoprecipitation with pro mouse MMP-9 enzyme active domain. It is filed as binding. Particulars: Protein G beads, detection in Elu lane. As to the method: (§3) In the same way, using M91005-Fc-01 prepared in (7-2), and pro-mMMP-9(cat)_His6_FLAG_Avi and active mMMP-9(cat)_FLAG_Avi prepared in (2-2), the binding activity was evaluated by an immunoprecipitation method. Samples for evaluation were subjected to SDS-PAGE, and the binding activity was evaluated by detection using Mouse MMP-9 Antibody (R&D Systems; AF909) and Peroxidase AffiniPure F(ab′)2 Fragment Donkey Anti-Goat IgG(H+L) (Jackson ImmunoResearch Inc.; 705-036-147).
(§4) When M91005-Fc-01-bound beads were used, pro-mMMP-9(cat)_His6_FLAG_Avi was not detected in the Elu lane, while active mMMP-9(cat)_FLAG_Avi was detected in the Elu lane. In contrast, when the beads not linked to M91005-Fc-01 were used, pro-mMMP-9(cat)_His6_FLAG_Avi and active mMMP-9(cat)_FLAG_Avi were not detected in the Elu lanes (FIG. 14(B)).

The target in assay [5] is T5, active mouse MMP-9 (active mMMP-9(cat)_FLAG_Avi) (Mus musculus, UniProt P41245).
T5 construct: an enzyme active domain (Phe108-Pro449), a FLAG tag; His tag (before the propeptide) (N, cleaved yes); made in house; host or cells: FreeStyle 293F
T5 sequence (P41245 108-449): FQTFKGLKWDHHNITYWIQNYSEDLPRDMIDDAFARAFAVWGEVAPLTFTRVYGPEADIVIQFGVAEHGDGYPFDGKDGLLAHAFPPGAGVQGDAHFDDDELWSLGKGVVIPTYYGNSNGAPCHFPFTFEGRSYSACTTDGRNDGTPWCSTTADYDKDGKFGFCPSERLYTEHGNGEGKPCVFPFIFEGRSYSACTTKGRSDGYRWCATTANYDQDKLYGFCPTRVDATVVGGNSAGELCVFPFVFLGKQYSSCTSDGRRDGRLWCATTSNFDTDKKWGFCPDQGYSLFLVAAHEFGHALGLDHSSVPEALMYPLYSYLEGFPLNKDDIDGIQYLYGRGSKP
Kind of assay: Immunoprecipitation with active mouse MMP-9 enzyme active domain. The class given is binding. As to conditions: Protein G beads, detection in Elu lane. Here is the method: as §3, §4

T1 sequence (P14780 107-449): as the sequence (P14780 107-449) above

B1: M91005-Fc-01: Fc conjugate: Stag+linker 1, M91005, C-terminal 6-mer, G4S linker and human IgG1 Fc (protein)
chain: GSGMKETAAAKFERQHMDSPDLGTDDDDKAMADIGSANSDPQFGLFSKYRTPNCRKRGGPSCQMSYNPVCGSDMSTYANECTLCMKIREGGHNIKIIRNGPCGASAAAGGGGS[… human IgG1 Fc …]
Regarding B1, the “human MMP-9 inhibitory activity IC50 compared with parent” value in assay [1] was “M91005-Fc-01 and M91005 are equivalent”. For the same molecule, the “binding to pro human MMP-9 by immunoprecipitation” value in assay [2] is reported as “does not bind to pro human MMP-9”. For the same molecule, the “binding to active human MMP-9 by immunoprecipitation” value in assay [3] is “specifically binds to active human MMP-9”. For the same molecule, in assay [4], the “binding to pro mouse MMP-9 by immunoprecipitation” value is given as “does not bind to pro mouse MMP-9”. Also, in assay [5], the “binding to active mouse MMP-9 by immunoprecipitation” value is reported as “binds specifically to active mouse MMP-9”.
